A word on the viability, T/C: it is the ratio of treated to control. Usually IC50 stands for the point on the concentration scale where inhibition reaches its midpoint.

The source holds more than one record for some entries. The other results are left out here. An entry can have further records. Values given together are repeated measurements across runs, samples, wells, individuals or studies.

The assay deals with 156681-154-R-J1-PDC complex spheroid viability. The assay is described as follows: Anticancer human tumor 156681-154-R-J1-PDC patient-derived melanoma cell line growth inhibition [CLK]. An excerpt:
A high-throughput screen of multi-cell type tumor spheroids was designed to identify active combinations of […] and targeted small molecules. Complex spheroids include a stromal component modeled by human endothelial cells (HUVEC) and fibroblasts modeled by human mesenchymal stem cells (MSCs). The concentration ranges selected for each drug and investigational agent were based upon clinically achievable concentrations if the clinical Cmax of the agent was known.
Compounds. The drugs and investigational agents: cirtuvivint (SM08502; NSC835563), CC-671 (NSC850746), vemurafenib (NSC761431), tapotoclax (NSC804041), sotorasib (NSC818433), adagrasib (NSC831453), MRTX-1133 (NSC836407), BAY2416964 (NSC825713), copanlisib (NSC816437), inavolisib (NSC800729), abemaciclib (NSC768073), osimertinib (NSC779217), entinostat (NSC756642), eltanexor (KPT-8602, NSC794443), venetoclax (NSC766270), ceralasertib (NSC777638), bortezomib (NSC756655), olaparib (NSC753686), talazoparib (NSC767125), alisertib (NSC759677), peposertib (NSC802822), gemcitabine (NSC613327), 5-fluorouracil (NSC19893), SN-38 (NSC673596), oxaliplatin (NSC266046), paclitaxel (NSC125973), and doxorubicin (NSC123127), were obtained from the National Cancer Institute (NCI) Developmental Therapeutics Program Chemical Repository. […] If the clinical Cmax for an agent had not been determined, the highest concentration tested was 10 microM. […]
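Also: spheroids exposed to the agents for seven days.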
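For viability, T/C in this document: 100% = DMSO vehicle control viability.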

Consider `CNC(=O)c1ccc(Nc2nc(OC3CCCC3)c3c(-c4ccc5nc(C)oc5c4)c[nH]c3n2)c(OC)c1`, for which, under “compound alone 10 µM, stronger effect = lower value”, the viability, T/C is reported as 46.5, 52.5, 50.1, 60.7, 46, 55.9, 33.9, 45.3, 51.5, 49.6, 50.7, 49%. Besides, the IC50 (drug combinations, compound alone, run of 08/15/2023) is > 10 µM, 313 nM, 239 nM, 234 nM, 903 nM, 546 nM, 148 nM, 463 nM, 241 nM, 282 nM, 199 nM, 287 nM.

Source of the values: PubChem BioAssay AID2060627 (Molecular Pharmacology Branch, DTP, NCI, 2025).
